Experimental data: PubChem BioAssay AID1745853 (National Center for Advancing Translational Sciences (NCATS), 2022)
This is one part of the list. Shown are side measurements of this screen, not its main read-out; they come without a call.

Key:
Assay in all cases: Primary Screen for Target Class Profiling of Small Molecule Inhibitors of Methyltransferases
[1] = molecular target: Glycine N-methyltransferase (Homo sapiens) (UniProt Q14749); settings: purified enzyme, MTase-Glo SAH luminescence; measured here: GNMT inhibition; at 40 µM; stronger effect = lower value
How it was run: (§1)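 Each enzyme was assayed with SAM and its substrate. SAH formation detected by MTase-Glo luminescence; single-point 40 uM screen[…].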

[2] = molecular target: Guanidinoacetate N-methyltransferase (Homo sapiens) (UniProt Q14353); settings: purified enzyme, MTase-Glo SAH luminescence; measured here: GAMT inhibition; at 40 µM; stronger effect = lower value
How it was run: as §1

[3] = molecular target: Histamine N-methyltransferase (Homo sapiens) (UniProt P50135); settings: purified enzyme, MTase-Glo SAH luminescence; measured here: HNMT inhibition; at 40 µM; stronger effect = lower value
How it was run: as §1

[4] = molecular target: Nicotinamide N-methyltransferase (Homo sapiens) (UniProt P40261); settings: purified enzyme, MTase-Glo SAH luminescence; measured here: NNMT inhibition; at 40 µM; stronger effect = lower value
How it was run: as §1

[5] = molecular target: Phenylethanolamine N-methyltransferase (Homo sapiens) (UniProt P11086); settings: purified enzyme, MTase-Glo SAH luminescence; measured here: PNMT inhibition; at 40 µM; stronger effect = lower value
How it was run: as §1
On the % scale 0 is the no-effect control and ±100 the full control effect.

For `Cc1ccc(Cc2nn3c(SCC(=O)NC4CCCCC4)nnc3[nH]c2=O)cc1`, which activity change, negative = inhibition [1] is on record?
Its activity change, negative = inhibition is 13.3%.

What about the activity change, negative = inhibition [2] of the same molecule?
The activity change, negative = inhibition was 3.96%.

What about the activity change, negative = inhibition [3] of the same molecule?
Its activity change, negative = inhibition is 8.85%.

And the activity change, negative = inhibition [4]?
The activity change, negative = inhibition was 0.963%.

And the activity change, negative = inhibition [5]?
Its activity change, negative = inhibition is 4.47%.

With `Clc1ccc(C2Nc3ccc(Br)cc3C3C=CCC32)cc1` (stereo not given) as the molecule, how does the activity change, negative = inhibition [1] read?
Its activity change, negative = inhibition is -10.9%.

And the activity change, negative = inhibition [2]?
The activity change, negative = inhibition was -5.79%.

What about the activity change, negative = inhibition [3] of the same molecule?
Its activity change, negative = inhibition is -9.47%.

What about the activity change, negative = inhibition [4] of the same molecule?
Its activity change, negative = inhibition is -15%.

And the activity change, negative = inhibition [5]?
Its activity change, negative = inhibition is -6.81%.

Which activity change, negative = inhibition [1] does the source give for `O=S(=O)(NCCn1cnc2ccccc21)c1cccc(Cl)c1` here?
Its activity change, negative = inhibition is -3.71%.

And the activity change, negative = inhibition [2]?
The activity change, negative = inhibition was -0.099%.

What about the activity change, negative = inhibition [3] of the same molecule?
The activity change, negative = inhibition was -3.29%.

What about the activity change, negative = inhibition [4] of the same molecule?
Its activity change, negative = inhibition is -1.05%.

And the activity change, negative = inhibition [5]?
The activity change, negative = inhibition was 0.164%.

For `CC(C)CCNC(=O)C1(C)Cn2c(cc3ccccc32)C(=O)N1c1ccc(Cl)cc1` (stereo not given), which activity change, negative = inhibition [1] is on record?
Its activity change, negative = inhibition is 4.45%.

And the activity change, negative = inhibition [2]?
The activity change, negative = inhibition was 3.45%.

And the activity change, negative = inhibition [3]?
Its activity change, negative = inhibition is 6.14%.

What about the activity change, negative = inhibition [4] of the same molecule?
The activity change, negative = inhibition was 8.32%.

And the activity change, negative = inhibition [5]?
The activity change, negative = inhibition was 1.24%.

What does the source list for `Cn1c(=O)c2ccc(C(=O)NC3CCCCC3)cc2n2c(=O)n(Cc3ccccc3)nc12`?
activity change, negative = inhibition [1]: -1.69%; activity change, negative = inhibition [2]: 0.907%; activity change, negative = inhibition [3]: 2.44%; activity change, negative = inhibition [4]: -7.54%; activity change, negative = inhibition [5]: -3.71%

`COc1cc(OC)cc(N2C(=O)c3cc(-c4ccccc4)nn3CC2(C)C(=O)NCc2ccccc2OC)c1` (stereo not given) was tested. Which activity change, negative = inhibition [1] did it give?
Its activity change, negative = inhibition is -2.02%.

What about the activity change, negative = inhibition [2] of the same molecule?
Its activity change, negative = inhibition is -0.775%.

What about the activity change, negative = inhibition [3] of the same molecule?
Its activity change, negative = inhibition is 2.26%.

What about the activity change, negative = inhibition [4] of the same molecule?
The activity change, negative = inhibition was -3.25%.

What about the activity change, negative = inhibition [5] of the same molecule?
Its activity change, negative = inhibition is -1.35%.

What does the source list for `CC[C@@](C)(Nc1ccnc(-c2c[nH]c3ncccc23)n1)C(=O)NCC(F)(F)F`?
activity change, negative = inhibition [1]: -9.91%; activity change, negative = inhibition [2]: 1.44%; activity change, negative = inhibition [3]: -3.21%; activity change, negative = inhibition [4]: -12.9%; activity change, negative = inhibition [5]: -4.4%

How did the activity change, negative = inhibition [1] turn out when `CCN1C(=O)c2c(C(=O)NCCc3ccc(OC)cc3OC)ncn2CC1(C)C(=O)NC1CCCC1` (stereo not given) was run?
Its activity change, negative = inhibition is -3.19%.

What about the activity change, negative = inhibition [2] of the same molecule?
The activity change, negative = inhibition was 0%.

And the activity change, negative = inhibition [3]?
The activity change, negative = inhibition was 4.77%.

What about the activity change, negative = inhibition [4] of the same molecule?
The activity change, negative = inhibition was -4.74%.

And the activity change, negative = inhibition [5]?
Its activity change, negative = inhibition is 2.27%.

Which activity change, negative = inhibition [1] does the source give for `CCN1C(=O)C2CC3(CCN(C(=O)c4cc(C)n(CCOC)c4C)CC3)CN2C1=O` (stereo not given) here?
The activity change, negative = inhibition was -2.13%.

What about the activity change, negative = inhibition [2] of the same molecule?
Its activity change, negative = inhibition is -7.83%.

What about the activity change, negative = inhibition [3] of the same molecule?
The activity change, negative = inhibition was 0.366%.

And the activity change, negative = inhibition [4]?
Its activity change, negative = inhibition is -5.79%.

What about the activity change, negative = inhibition [5] of the same molecule?
Its activity change, negative = inhibition is 0.138%.

How did the activity change, negative = inhibition [1] turn out when `O=C(CN1CC2CC(C1)[C@H]1CCCC(=O)N1C2)N1CCN(c2ccc(Cl)cc2)CC1` (stereo not given in full) was run?
The activity change, negative = inhibition was -4.64%.

And the activity change, negative = inhibition [2]?
The activity change, negative = inhibition was 1.98%.

And the activity change, negative = inhibition [3]?
Its activity change, negative = inhibition is -1.01%.

What about the activity change, negative = inhibition [4] of the same molecule?
Its activity change, negative = inhibition is -3.28%.

And the activity change, negative = inhibition [5]?
The activity change, negative = inhibition was 6.63%.

How did the activity change, negative = inhibition [1] turn out when `CN1CCN(C2Cc3ccccc3Sc3ccc(Cl)cc32)CC1` (stereo not given) was run?
Its activity change, negative = inhibition is 10.3%.

And the activity change, negative = inhibition [2]?
The activity change, negative = inhibition was 12.7%.

And the activity change, negative = inhibition [3]?
Its activity change, negative = inhibition is -19.4%.

What about the activity change, negative = inhibition [4] of the same molecule?
The activity change, negative = inhibition was -34.6%.

And the activity change, negative = inhibition [5]?
Its activity change, negative = inhibition is -2.72%.

How did the activity change, negative = inhibition [1] turn out when `c1cc2c(cc1CN1CCOCC1)CNCCO2` was run?
Its activity change, negative = inhibition is -0.092%.

And the activity change, negative = inhibition [2]?
The activity change, negative = inhibition was 3.43%.

And the activity change, negative = inhibition [3]?
Its activity change, negative = inhibition is 1.22%.

And the activity change, negative = inhibition [4]?
Its activity change, negative = inhibition is -4.13%.

And the activity change, negative = inhibition [5]?
The activity change, negative = inhibition was 13.9%.

`CC(C)CCNc1nc2c(-c3ccc(Cl)cc3)nnn2c2ccccc12` was tested. Which activity change, negative = inhibition [1] did it give?
Its activity change, negative = inhibition is -1.98%.

And the activity change, negative = inhibition [2]?
The activity change, negative = inhibition was 3.22%.

What about the activity change, negative = inhibition [3] of the same molecule?
The activity change, negative = inhibition was -1.86%.

And the activity change, negative = inhibition [4]?
Its activity change, negative = inhibition is -8.44%.

And the activity change, negative = inhibition [5]?
The activity change, negative = inhibition was -4.13%.

What does the source list for `CC1(C)CCC[C@@]2(C)C1[C@H](OC(=O)/C=C/C=C/C(=O)O)C=C1COC(=O)[C@@]12O` (stereo not given in full)?
activity change, negative = inhibition [1]: 4.09%; activity change, negative = inhibition [2]: 7.91%; activity change, negative = inhibition [3]: 12.4%; activity change, negative = inhibition [4]: -3.68%; activity change, negative = inhibition [5]: 5.97%

What does the source list for `COc1cc(/C=C/C(=O)O[C@H]2[C@H](O)[C@@H](CO)O[C@@]2(CO)O[C@H]2O[C@H](CO)[C@@H](O)[C@H](O)[C@H]2O)ccc1O`?
activity change, negative = inhibition [1]: 0%; activity change, negative = inhibition [2]: 4.57%; activity change, negative = inhibition [3]: 1.68%; activity change, negative = inhibition [4]: -7.93%; activity change, negative = inhibition [5]: 6.04%

For `C=C(C)[C@@H]1CC[C@](C)(O)[C@@H](OC(=O)c2ccccc2)C1`, which activity change, negative = inhibition [1] is on record?
Its activity change, negative = inhibition is -2.17%.

And the activity change, negative = inhibition [2]?
The activity change, negative = inhibition was -5.29%.

What about the activity change, negative = inhibition [3] of the same molecule?
Its activity change, negative = inhibition is 8.25%.

And the activity change, negative = inhibition [4]?
Its activity change, negative = inhibition is -20.1%.

What about the activity change, negative = inhibition [5] of the same molecule?
Its activity change, negative = inhibition is -1.32%.

Which activity change, negative = inhibition [1] does the source give for `CC1=CCC2C(C)(CO)CCCC2(CO)C1CO` (stereo not given) here?
Its activity change, negative = inhibition is -0.017%.

And the activity change, negative = inhibition [2]?
Its activity change, negative = inhibition is 1.57%.

And the activity change, negative = inhibition [3]?
The activity change, negative = inhibition was 4.57%.

What about the activity change, negative = inhibition [4] of the same molecule?
The activity change, negative = inhibition was -10.7%.

And the activity change, negative = inhibition [5]?
The activity change, negative = inhibition was 3.88%.
